# In PubChem BioAssay AID686978 (National Center for Advancing Translational Sciences (NCATS), 2013):
# In all, about 420,000 compounds went through this assay and about 64,000 (15%) were called active. Inconclusive means that the source gave no clear call. Such entries were picked first, then a sample of the others. Calls come from the whole dose curve; as a rule, active = well fitted inhibition curve with a large enough effect; inconclusive = small, poorly fitted or top-dose-only effect; inactive = flat fitted curve, though single readings scatter. No potency is given beside an inconclusive call; the fits are too rough.
# Experiment: qHTS for Inhibitors of human tyrosyl-DNA phosphodiesterase 1 (TDP1): qHTS in cells in absence of CPT; note: nearly all actives have a fitted effect of over 55% in size
# Details: DT40 Tdp1-/- hTDP1 cells, no CPT, ATP luminescence, 48 h; activity change, negative = growth inhibition: at 46.2 µM (top of the series) unless noted
# Procedure, shortened: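 Compound effects on proliferation are scored in DT40 Tdp1-/-;hTDP1 cells in the absence of CPT. ATP levels (CellTiter-Glo luminescence) are recorded after a ≥48 hr, 37 °C incubation.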
# % is set by controls: 0 for no effect and ±100 for the full control effect; potency is the fitted concentration of half-maximal effect; tags give direction and shape of the fitted curve.
SMILES,Potency,"activity change, negative = growth inhibition"
Cc1c(NC(=O)/C(C#N)=C/c2ccc(-c3ccccc3Cl)o2)c(=O)n(-c2ccccc2)n1C,active: 29.1 µM,–
CC(=O)Nc1ccc(C(=O)COC(=O)CN2C(=O)NC3(CCCCC3C)C2=O)cc1 (centres undefined),–,inactive: 23.6%
CNS(=O)(=O)c1cccc(C(=O)OCC(=O)c2cc(C)n(-c3ccc4c(c3)OCO4)c2C)c1,–,inactive: -28.7%
Brc1cccc(-c2nc3c4ccccc4ccn3c2Cc2ccccc2)c1,"inconclusive [inhibitor, single point]",–
CC(=O)Nc1cccc(NC(=S)Nc2ccc(F)c(Cl)c2)c1,"inconclusive [inhibitor, single point]",–
N#CCC1c2ccccc2CCN1C(=O)Nc1cccc(C(F)(F)F)c1 (centres undefined),–,inconclusive: -33.6% [inhibitor]
CCCCOc1ccc(C(=O)Nc2cc(-c3cn4cccnc4n3)ccc2OC)cc1,–,inactive: -2.6%
Cc1ccc(NC(=O)Cc2cc(C(=O)O)c3ccccc3n2)c(C)c1,active: 20.6 µM,–
CC(=O)c1ccccc1NC(=O)CSc1nc2ccccc2c(=O)n1CCCN1CCOCC1,"inconclusive [inhibitor, single point]",–
Cc1noc(C)c1COc1ccccc1C(=O)NCCOc1ccccc1F,"inconclusive [inhibitor, single point]",–
COc1ccc(OC)c(CN2CCN(CCc3ccccc3)C(CCO)C2)c1 (centres undefined),"inconclusive [inhibitor, single point]",–
c1cc(CSc2nnc(-c3ccc4c(c3)OCO4)o2)ccn1,"inconclusive [inhibitor, partial curve]",–
CN(C)C/C(Cl)=C(\Cl)c1ccccc1,active: 5.17 µM,–
Cc1ccoc1C(=O)N1CCCC(CCC(=O)N2CCN(c3ccccn3)CC2)C1 (centres undefined),active: 23.1 µM,–
CCOC(=O)c1c(S(=O)(=O)N2CCCC(C(=O)Nc3cccc(CC)c3)C2)c(C)n(CC)c1C (centres undefined),"inconclusive [inhibitor, single point]",–
Cn1c(N)c(C(=O)Nc2ccccc2)c(=O)[nH]c1=O,–,inactive: -23.4%
Cc1ccc(SCC(=O)OCC(=O)N(C)CC(=O)Nc2ccccc2Cl)cc1,–,inactive: -16.8%
Fc1cccc(Cc2c(-c3ccc(Cl)cc3)nc3ccc(Cl)cn23)c1,"inconclusive [inhibitor, single point]",–
C#CCN1C=CC(=O)[C@@H](OC(=O)Nc2ccc(OC)cc2)[C@H]1c1ccccc1Br,–,inactive: -17%
CC(=O)Nc1cccc(NC(=O)C(=O)NCC(c2ccco2)N2CCc3ccccc32)c1 (centres undefined),"inconclusive [inhibitor, single point]",–
O=C(Cc1ccc(OCCCc2ccccc2)cc1)NO,active: 14.1 µM,–
CC(C)Oc1ccc(Cn2c(-c3ccco3)n[nH]c2=S)cc1,–,inactive: -20.4%
COc1ccc(CN2C[C@@H](CO)O[C@@H](n3cnc4c(NCc5cc(OC)c(OC)c(OC)c5)ncnc43)C2)cc1,"inconclusive [inhibitor, single point]",–
O=C(c1ccc2ccccc2c1)c1c[nH]cc1-c1ccccc1,"inconclusive [inhibitor, single point]",–
Cc1ccccc1S(=O)(=O)Cc1ccc(C(=O)NCCCN2CCC(C)CC2)o1,–,inactive: 24.8%

SMILES,Potency,"activity change, negative = growth inhibition"
O=C(Nc1ccc(N2CCOCC2)c(Cl)c1)c1cccnc1,–,inactive: -7.1%
COc1ccccc1C1/C(=C(/O)c2ccccc2)C(=O)C(=O)N1CC(C)O (centres undefined),–,inactive: 2.07%
CCCCN(CC)CCCNC(=O)c1cc2cc3ccc(OC)cc3nc2o1,"inconclusive [inhibitor, single point]",–
COc1ccccc1CNC(=O)C1CCCN(S(=O)(=O)c2c(C)[nH]c(=O)[nH]c2=O)C1 (centres undefined),–,inactive: -3.58%
Fc1ccccc1N1CCN(C(c2ccccn2)c2nnnn2C2CCCCC2)CC1 (centres undefined),"inconclusive [inhibitor, single point]",–
COc1ccc(CN(C)C(=O)Cn2cnc3c(SC)nc(N)nc32)cc1OC,active: 20.6 µM,–
Cn1cccc1C(=O)N1CCC[C@@]2(CCN(C(c3ccccc3)c3ccccc3)C2)C1,"inconclusive [inhibitor, single point]",–
Oc1cccc(/C=N/NC(=S)Nc2cccnc2)c1O,active: 4.61 µM,–
CCOc1ccc(CNC(=O)c2ccc(NC(=O)N3CCCCc4ccccc43)cc2)cc1,"inconclusive [inhibitor, partial curve]",–
COc1ccccc1S(=O)(=O)N1CCN(S(=O)(=O)c2ccccc2C#N)CC1,–,inactive: -10.5%
Cc1c(NC(=O)Cc2ccc(Cl)cc2)cccc1-c1nc2cccnc2s1,active: 16.4 µM,–
Cc1c(CC(=O)NCC(=O)O)c(=O)oc2cc3oc4c(c3cc12)CCCC4,–,inactive: -5.97%
Cc1cccc(CNC(=O)Cn2nc(C)c3nn(-c4ccc(Cl)cc4)c(C)c3c2=O)c1,active: 18.4 µM,–
CCOC(=O)C1CCCN(c2nc3ccccc3nc2C(C#N)C(=O)OC(C)C)C1 (centres undefined),"inconclusive [inhibitor, partial curve]",–
Fc1cccc(Cc2noc(CN3CCCCC3CCc3ccccn3)n2)c1 (centres undefined),"inconclusive [inhibitor, single point]",–
O=C(COc1ccccc1)Nc1nnc(-c2ccco2)o1,–,inactive: -2.95%
Cn1cc(CN(CCO)Cc2cccs2)c(-c2ccccc2F)n1,–,inactive: 1.87%
COc1cccc(CN(C(=O)Cc2c[nH]c3ccccc23)C(C(=O)NC2CCCCC2)c2ccc(C)o2)c1 (centres undefined),active: 16.4 µM,–
CC(=O)c1cccc(-c2ccnc3c2CC(C(=O)NCc2ccc(N4CCN(C)CC4)cc2)O3)c1 (centres undefined),"inconclusive [inhibitor, single point]",–
CC(=O)NCCc1ccc(C(=O)COC(=O)c2ccc(C)s2)cc1,–,inconclusive: -49.2% [inhibitor]
CC(=O)Nc1ccc(CN2CCN(CCC(C)C)C(CCO)C2)cc1 (centres undefined),–,inactive: -12.9%
Cc1cc(Cl)c(OCCCNCc2ccccc2)c(Br)c1,active: 18.4 µM,–
CS(=O)(=O)N(CC(=O)NCCSCc1ccccc1Cl)c1ccccc1F,"inconclusive [inhibitor, single point]",–
COc1cccc(NC(=O)c2ccc(-c3ccc([N+](=O)[O-])cc3)o2)c1,"inconclusive [inhibitor, single point]",–
O=C(NC(=O)N1CCN(c2ccc(F)cc2)CC1)c1ccccc1,–,inactive: -4.25%

SMILES,Potency,"activity change, negative = growth inhibition"
Cc1ccc(OCCC(=O)N(CC(=O)Nc2ccccc2C(F)(F)F)Cc2ccco2)cc1,"inconclusive [inhibitor, single point]",–
COc1cc2ccccc2cc1C(=O)Nc1nc(C)c(C(C)=O)s1,–,inactive: -13.2%
CC(C)C(=O)Nc1cccc2nsnc12,"inconclusive [inhibitor, partial curve]",–
CCOc1ccc2ccc(OCC)c(/C=N/n3cnnc3)c2c1,"inconclusive [inhibitor, single point]",–
Cc1ccc(CSc2nnc(SCC(=O)N/N=C/C=C/c3ccccc3[N+](=O)[O-])s2)cc1,"inconclusive [inhibitor, single point]",–
Clc1cccc(CNCCCSc2nnnn2-c2ccccc2)c1,"inconclusive [inhibitor, single point]",–
CCC(=O)Nc1ccc(-c2nnc(-c3ccccc3)o2)cc1,–,inactive: 1.35%
Oc1c(C(c2ccco2)N2CCC3(CC2)OCCO3)sc2ncnn12 (centres undefined),–,inactive: -4.83%
CC1(C)CC(=O)C=C(NNC(=O)OC(C)(C)C)C1,–,inactive: 6.46%
CC(C)(C)C(=O)Nc1sc2c(c1-c1nc3ccccc3[nH]1)CCCC2,"inconclusive [inhibitor, single point]",–
Cc1ccc(NC(=O)c2ccc(OCc3c(C)noc3C)cc2)cc1C,"inconclusive [inhibitor, single point]",–
CC(C)(C)n1nnnc1C(c1ccccc1F)N(Cc1ccco1)CC1CCCO1 (centres undefined),"inconclusive [inhibitor, single point]",–
Cc1noc(C)c1C(=O)N(CC(C)C)c1nc2ccccc2s1,"inconclusive [inhibitor, single point]",–
CCOC(=O)c1cccnc1NC(=O)c1ccncc1,–,inactive: 7.91%
O=C1CC(C(F)(F)C(F)(F)C(F)(F)C(F)(F)F)=Nc2ccccc2N1,"inconclusive [inhibitor, single point]",–
CN(C)Cc1nc2ccccc2c(=O)n1Cc1nc(C(C)(C)C)cs1,"inconclusive [inhibitor, single point]",–
CCOC(=O)c1c(-c2ccc(C)cc2)csc1NC1=NS(=O)(=O)c2ccccc21,"inconclusive [inhibitor, single point]",–
Cc1ccc(NS(=O)(=O)c2ccc3c(c2)n(C)c(=O)n3C)c(C)c1,"inconclusive [inhibitor, single point]",–
CCCCOC(=O)c1ccc(NC(=O)c2ccc3c(c2)CCN3S(C)(=O)=O)cc1,–,inconclusive: -15.5% [inhibitor]
Cc1cccc(C(c2sc3nc(-c4ccco4)nn3c2O)N2CCOCC2)c1 (centres undefined),–,inactive: -23.2%
Cc1cccc(N2CCN(C(=O)CCS(=O)(=O)c3ccc4c(c3)CC(=O)N4C)CC2C)c1 (centres undefined),"inconclusive [inhibitor, single point]",–
CN(CC(=O)Nc1cccc(S(=O)(=O)N(C)c2ccccc2)c1)Cc1cccs1,"inconclusive [inhibitor, single point]",–
Cc1cc(C)c(C#N)c(N2CCC(C(N)=O)CC2)n1,–,inactive: -0.105%
COc1ccc(/C=N/NC(=O)c2ccc(CN3c4cccc5cccc(c45)S3(=O)=O)cc2)cc1,"inconclusive [inhibitor, partial curve]",–
